Our source for the switch fluorescence ratio values is the supplement of paper PMC10126150.

Values marked as one replicate rest on one cluster of the flow cell; about a third of the high ones do not repeat.
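Further: ATP exposure 15 min at 22 °C before imaging.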

The data set deals with ATP. In words: switch fluorescence ratio, 500 uM ATP over buffer (Cy3 cluster intensity, sum of 5 cycles each) (fold (ratio)); higher = stronger signal-on switching upon ATP binding; sequences stand for … in TCGTCGGCAGCGTCAGATGTGTATAAGAGACAGTTTTTTTTTTTTTTTTTTTTTTTTT…TC. To be noted: aptamer strand: ATP DNA aptamer (quencher-CACCTGGGGGAGTATTGCGGAGGAAGG + anchor), 100 nM annealed; ATP concentration: 500 uM; one replicate. The procedure, abridged: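 Five buffer/ATP imaging cycles were run on Cy3-labelled switching-strand clusters on a modified Illumina MiSeq flow-cell, with NaOH stripping and re-annealing between cycles. In each cycle, clusters annealed to 100 nM quencher-labelled ATP aptamer were imaged in selection buffer, then after 15 min with 500 uM ATP at 22 °C. Per cluster, the fluorescence ratio is summed target-cycle over summed buffer-cycle Cy3 intensity, averaged per switch-domain sequence. Only clusters within 100-1000 RFU were kept.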
In the case of GGGTCGTGGG, the switch fluorescence ratio is 0.986.
As to TCAAGAAAAG, the switch fluorescence ratio was 1.03.
The result for AGCTAATTC reads 1.17.
The result for TAGGAGAAGC reads 1.01; that for CTCAAATGTT, 1.01.
Next, GTTGTGGCTT: 0.985; GTCTTGGGAG: 1; CGGTTCCAAG: 0.939.
Turning to CTTTAAAGAA, the switch fluorescence ratio was determined as 0.974.
The result for GCCCAAAAAG reads 1.01; that for ACTAGACTCA, 1.1.
With GGTTAATTA, the switch fluorescence ratio came to 1.03.
Regarding TATGGCCTTA, the switch fluorescence ratio is 0.943.
The result for AGAACGTGGG reads 0.955; that for AGTATCCTAT, 0.994; that for GAAACAAAAA, 0.98.
Next, TGGCTTGGAA: 0.979; GGCTGGAGCA: 1.06; CGACTACTTA: 1.04.
The result for AGGACAGTG reads 1.01.
In the case of TTTAGTATCT, the switch fluorescence ratio was determined as 1.02.
Turning to GATGAAAAG, the switch fluorescence ratio amounted to 1.02.
Next, TGGTAATT: 0.996; ATATATGGG: 0.958; TTTCCGTATT: 2.31.
As to CTTTGAAACC, the switch fluorescence ratio turned out to be 1.
Next, CCACTACGAG: 1.06.
With GACTACACGT, the switch fluorescence ratio came out at 1.47.
For ATAGATTATC, the switch fluorescence ratio was found to be 1.
The result for TTCCTTCATC reads 1.59.
Next, CAGGTGCCTT: 1.53; TAAGAAGACC: 1.03; CGCAGAGTTC: 1.11.
Regarding TTAGTTTAGT, the switch fluorescence ratio was 0.971.
As for GACCTTACAA, the switch fluorescence ratio was determined as 1.25.
The result for CCAGTGGGAG reads 1.03.
Consider ATTCGGAGCT, for which the switch fluorescence ratio worked out at 1.17.
Next, TTTAACCCGT: 0.982.
The result for GCGGGATTTG reads 0.974; that for CAGGAATACC, 1.45; that for GGCTATATCT, 1.03.
The result for AGGTGGACGC reads 1.03; that for CATCATAATC, 1.05.
As to TATAGTAAGG, the switch fluorescence ratio is 0.986.
The result for CCGGGTGAGA reads 1.11; that for GATCATGGTA, 0.977; that for ATACACGAAA, 1.23.
The result for GTTGCAGCTC reads 1.01; that for ACACCTTTGG, 0.999.
Next, GGCATGTGTG: 1.01; GAACTAGCAA: 0.95; GTTTCAAGGC: 1.12.
For GGCCGGTAGA, the switch fluorescence ratio amounted to 1.02.
Next, CACATTAGCT: 1.03.
The result for AGCCCTTTGG reads 0.999; that for ACCTCGTCTC, 1.08; that for TTCAAGAAGA, 0.997.
In the case of CAAGAGTTTA, the switch fluorescence ratio turned out to be 0.972.
The result for CTCGGAGGGT reads 1.01; that for GACTGAGCCA, 1.07.
The result for ATCTATGTCT reads 1.02.
Regarding TCTTGGGGTC, the switch fluorescence ratio was determined as 1.06.
Next, ATCTATCGGG: 0.972; AAAAAGTTCC: 1.05.
The result for AGGCTACTT reads 1.02.
The result for CCAGGCTGGG reads 1.08.
In the case of AATTTACGAG, the switch fluorescence ratio was 1.02.
